# According to PubChem BioAssay AID485294 (National Center for Advancing Translational Sciences (NCATS), 2010):
# Screen size: about 370,000 compounds; about 150 (0.041%) were called active. The shares of active, inactive and inconclusive entries below differ from those in the screen. The call rests on the fitted dose curve; in most records, active means well fitted inhibition curve with a large enough effect; inconclusive means small, poorly fitted or top-dose-only effect; inactive means flat fitted curve, though single readings scatter. Potencies of inconclusive entries are left out as doubtful fits.
# Molecular target: Beta-lactamase (Escherichia coli (strain K12)) (UniProt P00811)
# Sequence of UniProt P00811 (P00811 whole entry, looked up): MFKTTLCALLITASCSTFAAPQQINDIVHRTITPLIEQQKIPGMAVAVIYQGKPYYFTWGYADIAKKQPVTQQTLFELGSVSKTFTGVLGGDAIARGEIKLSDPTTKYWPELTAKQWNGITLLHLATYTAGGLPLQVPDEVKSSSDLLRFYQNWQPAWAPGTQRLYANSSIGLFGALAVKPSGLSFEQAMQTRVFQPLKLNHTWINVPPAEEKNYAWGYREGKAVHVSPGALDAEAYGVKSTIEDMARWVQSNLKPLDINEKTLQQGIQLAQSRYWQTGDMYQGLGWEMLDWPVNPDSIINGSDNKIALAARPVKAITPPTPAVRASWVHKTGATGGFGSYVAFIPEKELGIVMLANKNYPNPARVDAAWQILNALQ
# Experiment: qHTS Inhibitors of AmpC Beta-Lactamase (assay with detergent); further: nearly all actives have a fitted effect of over 25% in size
# Conditions: AmpC hydrolysis of nitrocefin, absorbance 480 nm, 0.01% Triton; series mostly up to 114 µM
# Method: NIH Molecular Libraries Probe Production Network [MLPCN] NIH Chemical Genomics Center [NCGC] Assay Provider: Professor Brian Shoichet, UCSF Assay Overview: This aggregation profiling approach exploits the sensitivity of aggregate formation to detergent. Inhibition of b-lactamase is measured in the presence and absence of 0.01% Triton X-100. This particular assay had the prescence of 0.01% Triton X-100. See Pubchem assay "Promiscuous and Specific Inhibitors of AmpC Beta-Lactamase (assay without detergent)" for related screen. Compounds that inhibit only in the absence of detergent are considered likely promiscuous aggregators. A screen of 1,030 compounds was performed in Brian Shoichet's lab in 96-well format. AmpC activity was measured by following the absorbance at 480 nm. Nitrocefin is a chromogenic substrate: while nitrocefin is yellow (lmax 390 nm), the product of its hydrolysis is red (lmax 486 nm, 17,000 M-1). AmpC beta lactamase was provided by Shoichet Lab, UCSF.
# Buffer: 20 mM phosphate buffer, pH 7.0 Triton X-100: No Detergent screen: 0.0001%, Detergent screen: 0.01%. Reagents/Controls: Buffer in columns 3 and 4 as negative control (no enzyme). 5.3 nM AmpC in columns 1, 2, 5-48. Titration of UCSF compound 9 control (from 10 mM, then 1:2) pin-transferred to column 2. Column 1 is neutral (100% activity). Assay Steps: Six uL of reagents were dispensed to 1536-well Greiner black clear bottom plates. Compounds and controls (23 nL) were transferred via Kalypsys PinTool. The plates were incubated for 15 min at room temperature, and then 2 uL of 800 uM solution of nitrocefin was added to start the reaction. The plates were immediately transferred to and read every 20 seconds for 4 min on ViewLux (Perkin-Elmer) High-throughput CCD imager using 480 nm absorbance protocol. During dispense, reagent bottles were kept submerged into 4 deg C water bath. Keywords: NIH Roadmap, MLSCN, MLI, MLSMR, qHTS, NCGC, AmpC Beta-Lactamase, Aggregation
# Potency means the concentration at half of the fitted maximal effect; tags describe the fitted curve by direction and shape.
row,Structure (SMILES),Potency
1,O=C(N/N=C/c1ccc2c(c1)OCO2)c1cc(-c2ccncc2)nc2ccccc12,"inconclusive [inhibitor, full curve, poor fit]"
2,CN(C)c1ccc(O)c2c1CC1CC3[C@@H](N(C)C)C(=O)C(C(N)=O)=C(O)[C@]3(O)C(=O)C1=C2O (some centres not stated),inactive
3,Cc1ccc(NC(=O)Cn2c(C)csc2=O)cc1,"inconclusive [inhibitor, partial curve, poor fit]"
4,O=C(Nc1ccccc1)OC1CCS(=O)(=O)C1 (configuration not stated),"inconclusive [inhibitor, full curve, poor fit]"
5,COc1ccc(C)cc1NC(=O)CSc1nnc(-c2ccccn2)n1Cc1ccco1,inactive
6,COc1cc2c(c(OC)c1OC)-c1ccc(O)c(=O)cc1[C@@H](N)CC2,inactive
7,CC(=O)NC(c1cc(F)c2cccnc2c1O)C1CC1 (configuration not stated),inactive
8,Cc1ccc(CN(C(=O)c2c(F)cccc2F)C2CC(C)(C)NC(C)(C)C2)o1,"inconclusive [inhibitor, partial curve]"
9,Nc1ccc2c(c1)C(=O)c1ccccc1C2=O,inactive
10,COc1ccc(NC(=O)COc2ccccc2Cc2ccccc2)cn1,"inconclusive [inhibitor, single point]"
11,CCCOc1c(OC)cccc1C1CC(=O)Nc2cc(OC)c(OC)c(OC)c21 (configuration not stated),"inconclusive [inhibitor, full curve, poor fit]"
12,Cc1cc(Nc2ccccc2)nc(-c2ccccc2O)n1,"inconclusive [inhibitor, full curve, poor fit]"
13,CCc1ccc(NCCC(=O)c2ccc(Br)cc2)cc1,inactive
14,Cc1ccc(C2OCC3(CO2)COC(c2ccc(C)cc2)OC3)cc1 (configuration not stated),"inconclusive [inhibitor, partial curve, poor fit]"
15,O=C(CC1COc2ccccc2O1)Nc1ccccn1 (configuration not stated),"inconclusive [inhibitor, single point]"
16,Cc1ccc(CN=c2c([N+](=O)[O-])nn(-c3ccc4c(c3)OCCO4)n2O)cc1,inactive
17,Cn1cnc([N+](=O)[O-])c1Sc1ccc([N+](=O)[O-])cc1,inactive
18,O=C(O)CCc1ccc(-c2ccccc2)n1CC(=O)O,"inconclusive [inhibitor, single point]"
19,CCCC(=O)N(CCc1ccccc1)Cc1nc2ccccc2c(=O)[nH]1,"inconclusive [inhibitor, full curve, poor fit]"
20,CCc1ccc(NC(=O)NCCN2CCN(c3ccc(OC)cc3)CC2)cc1,inactive
21,COc1ccc(CCNC(=O)CSc2nc3ccccc3o2)cc1,"inconclusive [inhibitor, partial curve, poor fit]"
22,CC1=CC(=O)N(c2cccc(C(F)(F)F)c2)C1c1ccc(Cl)cc1 (configuration not stated),"inconclusive [inhibitor, full curve, poor fit]"
23,CCC(CC)Nc1ccc(C(CC(N)=O)NC(=O)c2ccccc2)cc1[N+](=O)[O-] (configuration not stated),"inconclusive [inhibitor, full curve, poor fit]"
24,CCc1cccc(C)c1NC(=O)Cn1cnc2c1c(=O)n(C)c(=O)n2C,inactive

row,Structure (SMILES),Potency
1,Cc1ccc(-c2csc3nnc(SCc4csc(C)n4)n23)cc1,"inconclusive [inhibitor, full curve, poor fit]"
2,Nc1cc(-c2cccc(Br)c2)nn1Cc1ccccc1,inactive
3,CCc1nn2c(=O)cc(COC(=O)c3cccc(NC(=O)c4cccs4)c3)nc2s1,inactive
4,Cc1c(Cl)cccc1NC(=O)NN1CCN(C)CC1,"inconclusive [inhibitor, partial curve]"
5,CSCCC(NC(=O)COc1ccccc1)C(=O)OCCOc1ccc(Br)cc1 (configuration not stated),"inconclusive [inhibitor, full curve, poor fit]"
6,Cc1sc2nc(C(C)C)nc(SCC(=O)N3CCN(C(=O)c4ccco4)CC3)c2c1C,inactive
7,CCc1cc(Cn2nc(-c3ccccc3)cc2C(=O)NCc2ccccc2OC)on1,"inconclusive [inhibitor, single point]"
8,COCc1[nH]nc2c1C(c1cc(OC)c(O)c(OC)c1)C(C#N)=C(N)O2 (configuration not stated),"inconclusive [inhibitor, single point]"
9,N#Cc1cn(OCc2ccccc2)c(=O)[nH]c1=O,"inconclusive [inhibitor, full curve, poor fit]"
10,O=C(COC(=O)c1cccc(S(=O)(=O)N2CCOCC2)c1)Nc1nc(-c2ccccc2Cl)cs1,inactive
11,Cc1c(C(=O)O)sc2ncn(C)c(=O)c12,"inconclusive [inhibitor, full curve]"
12,Nc1nc2c(s1)CCCCCCCCCC2,inactive
13,O=C1CCCC2=C1C(c1ccncc1)Nc1ccccc1N2 (configuration not stated),"inconclusive [inhibitor, full curve, poor fit]"
14,Cc1ccc(COCCN2CCN(S(=O)(=O)c3ccc(C)cc3)CCC2=O)cc1,"inconclusive [inhibitor, partial curve]"
15,CN(C)/C=N/c1c(C#N)cnn1-c1ccc(C(F)(F)F)cn1,inactive
16,Cc1ccc(C(=O)Nc2ccc(N3CCOCC3)cc2N2CCOCC2)cc1,"inconclusive [inhibitor, full curve, poor fit]"
17,Cc1ccc(CNC(=O)NCc2noc3ccc(C)cc23)cc1,inactive
18,COc1ccccc1CCNC(=O)c1ccc(C)o1,"inconclusive [inhibitor, full curve, poor fit]"
19,Cc1nn(-c2ccc(C(=O)O)cc2)c2c1C(=O)CC(C)(C)C2,inactive
20,CCC(Sc1nc(=O)cc(N)n1CCc1ccccc1)C(=O)Nc1cc(C)on1 (configuration not stated),"inconclusive [inhibitor, full curve]"
21,O=C(Nc1nnc(C2CCCO2)s1)c1cccs1 (configuration not stated),inactive
22,Cc1ccc(C(=O)N/C(=C\c2cn(C)c3ccccc23)C(=O)N2CCOCC2)cc1,inactive
23,Cc1cc(NCc2ccccn2)n2ncc(-c3ccccc3)c2n1,"inconclusive [inhibitor, single point]"
